The full ranking holds about 33,000 sequences; the median of “E-score (-0.5 to 0.5)” is about -0.012, and the highest 2% start at about 0.29. The list shows a part of the results.
The sequences below were run against T1, Ybr033w (UniProt P38073) (assay: PBM E-score (8-mer binding enrichment) (E-score (-0.5 to 0.5)); higher = stronger / more preferred TF binding; most listed sequences are background and not binding sites). Details: protein concentration: 200 nM; construct: GST-full length.
T1 sequence: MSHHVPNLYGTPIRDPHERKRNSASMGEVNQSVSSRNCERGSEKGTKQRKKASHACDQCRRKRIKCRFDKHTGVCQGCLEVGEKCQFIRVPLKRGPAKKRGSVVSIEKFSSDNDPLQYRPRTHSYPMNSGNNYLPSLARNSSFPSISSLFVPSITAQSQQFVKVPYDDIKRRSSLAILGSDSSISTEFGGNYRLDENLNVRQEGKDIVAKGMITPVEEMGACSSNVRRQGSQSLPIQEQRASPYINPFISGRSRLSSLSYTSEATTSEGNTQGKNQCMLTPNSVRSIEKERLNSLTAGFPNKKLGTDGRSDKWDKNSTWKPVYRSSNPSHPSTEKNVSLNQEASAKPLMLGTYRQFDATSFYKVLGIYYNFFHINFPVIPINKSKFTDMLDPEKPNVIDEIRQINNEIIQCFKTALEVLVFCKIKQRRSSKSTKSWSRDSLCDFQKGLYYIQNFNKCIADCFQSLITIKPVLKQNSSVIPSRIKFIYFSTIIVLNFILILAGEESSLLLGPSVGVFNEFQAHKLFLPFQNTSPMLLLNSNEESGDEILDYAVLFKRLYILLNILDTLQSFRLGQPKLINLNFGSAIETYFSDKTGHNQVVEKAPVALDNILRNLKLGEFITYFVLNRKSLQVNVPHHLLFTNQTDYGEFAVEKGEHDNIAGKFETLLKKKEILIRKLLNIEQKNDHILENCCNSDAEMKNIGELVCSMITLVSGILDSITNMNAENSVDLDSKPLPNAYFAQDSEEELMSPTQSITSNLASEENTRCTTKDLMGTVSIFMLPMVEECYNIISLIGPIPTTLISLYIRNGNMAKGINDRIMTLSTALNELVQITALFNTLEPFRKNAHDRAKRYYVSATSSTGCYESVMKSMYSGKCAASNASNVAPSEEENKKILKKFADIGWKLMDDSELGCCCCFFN
Description: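 Universal 'all 10-mer' protein binding microarrays (Agilent AMADID 015681) probed with GST-tagged S. cerevisiae TFs (full-length or DBD) made by in vitro transcription/translation (PURExpress), about 100-200 nM. Bound TF was detected with fluorescent anti-GST. Each ungapped 8-mer (which stands for itself and its reverse complement) is scored by the PBM enrichment score (E-score), a modified Wilcoxon-Mann-Whitney statistic from -0.5 to +0.5, computed with the Universal PBM Analysis Suite. Scale: above 0.35 generally sequence-specific binding.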
For AGATACCT, the “PBM E-score” value was -0.0724. For CTAGAAAG, the “PBM E-score” value was 0.0991. In the case of TGAATGAA, the “PBM E-score” value is reported as 0.13. In the case of CGACTTTA, the “PBM E-score” value is reported as 0.141. In the case of ATATCAGC, the “PBM E-score” value is reported as -0.0414. GGGCAATA was tested, and the “PBM E-score” value was -0.0229. In the case of AACGTGTA, the “PBM E-score” value is reported as 0.114. With AAAGACGG the “PBM E-score” value was -0.114. For ACGCACCT, the “PBM E-score” value was -0.0108. In the case of CACCCCGC, the “PBM E-score” value is reported as -0.106. With ATACAGCC the “PBM E-score” value was -0.0236. In the case of AATATGGA, the “PBM E-score” value is reported as 0.107. In the case of ATTGAGGC, the “PBM E-score” value is reported as 0.105. CATGGTTC was tested, and the “PBM E-score” value was -0.0103. ATGGACCG was tested, and the “PBM E-score” value was -0.103. With CCATACCA the “PBM E-score” value was 0.0828. With CTTGTGAC the “PBM E-score” value was -0.0338. CAGGTTCC was tested, and the “PBM E-score” value was -0.205. For AGCTCAGA, the “PBM E-score” value was -0.222. In the case of ACTTGGCC, the “PBM E-score” value is reported as -0.179. In the case of GGTCTTAC, the “PBM E-score” value is reported as -0.0701. For AACTGGAA, the “PBM E-score” value was 0.134. With CGCCTTCA the “PBM E-score” value was -0.188. For CCGCTTGC, the “PBM E-score” value was -0.0517. With CATCAATC the “PBM E-score” value was 0.0636. In the case of AGTGTGTG, the “PBM E-score” value is reported as 0.0958. GAGGAACC was tested, and the “PBM E-score” value was -0.0925. With AGGTCATA the “PBM E-score” value was -0.0094. With ACATAAAT the “PBM E-score” value was 0.149. For CAGTCGAG, the “PBM E-score” value was -0.244. With GGACTAAC the “PBM E-score” value was -0.0911. With AACCTCCT the “PBM E-score” value was 0.0181. With GACCTGGA the “PBM E-score” value was -0.0751. With AAAGAATG the “PBM E-score” value was 0.284. For AGCCTAAC, the “PBM E-score” value was -0.0736. AGTGGCCC was tested, and the “PBM E-score” value was -0.284. With CAATCCGA the “PBM E-score” value was 0.14. GCCCCACC was tested, and the “PBM E-score” value was -0.0518. CCCCGGGA was tested, and the “PBM E-score” value was -0.241. For AGAAGATC, the “PBM E-score” value was -0.0526. AAACCACC was tested, and the “PBM E-score” value was -0.0782. In the case of CCTGCGGC, the “PBM E-score” value is reported as -0.304. In the case of ACTACCCA, the “PBM E-score” value is reported as 0.0187. For AGCAACAT, the “PBM E-score” value was 0.0238. CCGAGCTC was tested, and the “PBM E-score” value was -0.118. For CCAGTGCA, the “PBM E-score” value was -0.108. ATAATCAC was tested, and the “PBM E-score” value was 0.212. With TTACAAAA the “PBM E-score” value was 0.268. GGCCCAGA was tested, and the “PBM E-score” value was -0.33. AAGCCGAT was tested, and the “PBM E-score” value was 0.0459. For CCGTGCTC, the “PBM E-score” value was -0.22. In the case of CCTCGTCC, the “PBM E-score” value is reported as -0.169. For ATATGTTC, the “PBM E-score” value was 0.261. For GGTATGAC, the “PBM E-score” value was -0.127. With CCTCTGAA the “PBM E-score” value was -0.218. In the case of ACTTCGAC, the “PBM E-score” value is reported as 0.0396. CGCCAAAA was tested, and the “PBM E-score” value was 0.0408. In the case of ATCCAAGA, the “PBM E-score” value is reported as 0.175. In the case of CTCTGATC, the “PBM E-score” value is reported as -0.226. For CATGCTGG, the “PBM E-score” value was -0.08. In the case of ACTCCGCG, the “PBM E-score” value is reported as -0.177. In the case of GTGGAATA, the “PBM E-score” value is reported as 0.262. With ACGACAGA the “PBM E-score” value was -0.16. With GACGAGCA the “PBM E-score” value was -0.00776. TGAGATAA was tested, and the “PBM E-score” value was 0.151. With GTGGCGTA the “PBM E-score” value was -0.0744. TCGACCAA was tested, and the “PBM E-score” value was -0.117. For TATTCCAA, the “PBM E-score” value was 0.269. With CTGTTACC the “PBM E-score” value was -0.0685. In the case of GCGTAGAC, the “PBM E-score” value is reported as -0.163. For ATGTTGTG, the “PBM E-score” value was 0.206. For ACCGGCGC, the “PBM E-score” value was -0.15. In the case of ACCGCCAA, the “PBM E-score” value is reported as -0.0227. With AGGAACTG the “PBM E-score” value was -0.123. For CATTCTTA, the “PBM E-score” value was 0.0157. In the case of CCTTCTTA, the “PBM E-score” value is reported as -0.143. In the case of GGCAGCCA, the “PBM E-score” value is reported as -0.0547. For CACAACCG, the “PBM E-score” value was -0.0477. In the case of ATAAGATC, the “PBM E-score” value is reported as 0.0107. CAGATCCC was tested, and the “PBM E-score” value was -0.187. For ATGTGGAC, the “PBM E-score” value was 0.0325. CTACTTGA was tested, and the “PBM E-score” value was -0.0776. In the case of ATGGACGA, the “PBM E-score” value is reported as 0.032. For GCTCTAGA, the “PBM E-score” value was -0.2. In the case of ACCAAAAC, the “PBM E-score” value is reported as 0.0839. In the case of TAACACTA, the “PBM E-score” value is reported as 0.28.

From the supplement of paper PMC3334620
